From the supplement of paper PMC11417369 come the findings set out here.

The list shows a part of the results.

In the assay the test system is PfAP2-HC AP2 domain (GST-tagged). Briefly: gcPBM binding intensity (ln(normalized median fluorescence intensity)); higher = stronger DNA binding. A digest of the protocol:
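GST-fused DNA-binding domains of P. falciparum, expressed in E. coli, were applied at about 25 μg on average for 1 h to an Agilent 4 × 180k array of primer-extended double-stranded 36-bp intergenic genomic probes and negative controls. Binding intensity is the highest Masliner-normalised natural-log median intensity across replicate spots of either probe orientation, measured with Alexa488 anti-GST antibody and a 488 nm scan.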
For the sequence “AAAGATTCTTTGAATTGTACAAATATATTTACTCAC [XGTACX_site8772]”, the “gcPBM binding intensity (ln)” value was 9.59.
As for “ATGTTCCATTTTACTTGTACTAATTTTTTCCTATCT [XGTACX_site6474]”, the figure is 9.78; as for “TATATTATTTTCTTTTGTACACATATATATCAGTGT [XGTACX_site664]”, 9.9.
As for “ATGATAATTTTTTTCTCACACACAAATATTTTAATC [CACACA_site3665]”, the figure is 9.92; as for “TTTTTATTGCAATACTTATATTTTTTTATGATTAAA [TGCATGCA_negctrl_site147]”, 9.77.
As for “ATAATAATAAAGTATGCATGCATATAATATAATATA [TGCATGCA_site796]”, the figure is 10; as for “AAATCACATAAAACATAATCAAATGAAATATAATCA [CACACA_negctrl_site123]”, 9.67.
Consider “TAAATATTATTATATACATGCACTTACAACTTTTTT [TGCATGCA_site877]”, for which the “gcPBM binding intensity (ln)” value is 9.83.
As for “ACTGTAAATTTATTCGGTACACATATAAATAATATT [XGTACX_site7346]”, the “gcPBM binding intensity (ln)” value turned out to be 9.64.
To “TTAATGGCAAAATAGGCACACACACCGATACATATA [CACACA_site8263]” belongs 10.3; to “ACAGTAGCCAGTAACTGTACGGATTGTAGAGATCAG [XGTACX_site4873]”, 9.74.
Take “ATAATATTTAGGTGTGCACACAAACATACATATATA [CACACA_site9120]”: the “gcPBM binding intensity (ln)” value is 10.2.
As for “ATTATTTTTAAAAATTGTACAGTATAAGAGAGAAAT [XGTACX_site7094]”, the figure is 9.64; as for “TATTGTAAAAAGATTACACACGTTCTATATACTTTT [CACACA_site5379]”, 9.82; as for “AATAAAAAAATATATTGTACTAATAATTATATGTTT [XGTACX_site2246]”, 9.58.
As for “ATGGTTAAAAAAAGCATACACACTATCCTCTTTGCT [CACACA_site2552]”, the figure is 9.87; as for “TTTGTTGACGGACACACACACATACAGATATATATA [CACACA_site5292]”, 10.1; as for “ATAATAAATTATTATGTACACACATAATAGTATATA [CACACA_site8538]”, 9.95.
As for “TAGATACATAAAAGTGGTACATATATATATATATAT [XGTACX_site6263]”, the “gcPBM binding intensity (ln)” value turned out to be 9.85.
With “AATATTTATATTTACACACACATAATACCTATATGT [CACACA_site6167]”, the “gcPBM binding intensity (ln)” value stood at 10.2.
To “TGGAAATTCTCAGGAGTGCATATTTGCAGTTTACGT [GTGCAC_site9768]” belongs 9.7; to “ATATTTTTTTTTTTTTGTACATATATCATTATATAT [XGTACX_site866]”, 9.85; to “TTTTTGTCTGCATACGCACACACGTGTACCATCTTA [CACACA_site1173]”, 10.8.
As for “TGGTTACTGTCATTAGTTATTTCTTGTTGACAATTA [CACACA_negctrl_site416]”, the figure is 9.66.
As for “CCGTTGAACATATATGCACACACATAAAATAAAAAA [CACACA_site8761]”, the figure is 10.
Regarding “TATTTTTCCATATGCACACACACCGTATCTAGAATA [CACACA_site6654]”, the “gcPBM binding intensity (ln)” value turned out to be 10.3.
To “TACATAAACATTTATACACACATTATGTATACATAT [CACACA_site405]” belongs 9.96.
Consider “GGATTTTTCGAATCATGTACATATTTAATTAAAAAA [XGTACX_site7939]”, for which the “gcPBM binding intensity (ln)” value came out at 9.35.
As to “TAGAATGTATGTAGTGCACACCTCTATAATATATTA [CACACA_site1873]”, the “gcPBM binding intensity (ln)” value was 9.72.
As for “AACTTTGGCAAACACACACACACACCCACACCCACA [CACACA_site588]”, the figure is 10.5; as for “TTCTCACTTTTAAATTTTATTCAAAAATAAGGAAAG [XGTACX_negctrl_site444]”, 9.23; as for “GAGAGTAAAACAAATATACACACCATAAAGTTATAA [CACACA_site1686]”, 9.85.
As for “ATATATATATATAAATGTACATATGTATAATTCATA [XGTACX_site6679]”, the figure is 9.91; as for “ATTTCGTTCTTTTATGCACACTCAACATATAAATTA [CACACA_site8322]”, 9.93; as for “TTATATATTTTGATTGCACACAGAATTTAAATCATG [CACACA_site8735]”, 9.79.
To “ATATATGTGCTAAAATGTACATAGTATAATATATTT [XGTACX_site1949]” belongs 9.79.
As to “TTTAATCATTTTAGCTTACACACAAAATTTTGTTAT [CACACA_site2938]”, the “gcPBM binding intensity (ln)” value came out at 9.96.
For “ATAAAATAAAGGAAAAATATTAAGTTTTAAGAAAAT [CACACA_negctrl_site1066]”, the “gcPBM binding intensity (ln)” value turned out to be 9.64.
To “ATATTTAAGATTTAATCACACACATATATATTATAT [CACACA_site8946]” belongs 9.9.
As for “TTTTTTTTTTGCACGTGTACATAAAAATATATATAT [XGTACX_site3116]”, the figure is 9.54.
To “AAAATATATTCAACTTGTACATATATATATATATAT [XGTACX_site7629]” belongs 9.7; to “TTTTTGTAATGACACACACACAAACAGAAAAAATAA [CACACA_site7062]”, 10.2.
“AAAATTTATGGAAGGTGTACTGTTAATTATGTATAT [XGTACX_site6446]”: the “gcPBM binding intensity (ln)” value was determined as 9.74.
As for “ATATTAAAGATATATACACACATATTTATAAATATA [CACACA_site7127]”, the figure is 9.78.
